The supplement of paper PMC3334620
In all, about 33,000 sequences were measured (“E-score (-0.5 to 0.5)”: median about -0.013, highest 2% from about 0.3 on). Some of the results follow.

What follows are sequences tested against T1, Msn1 (UniProt P22148) (assay: PBM E-score (8-mer binding enrichment) (E-score (-0.5 to 0.5)); higher = stronger / more preferred TF binding; most listed sequences are background and not binding sites). Conditions: protein concentration: 200 nM; construct: GST-full length.
T1 sequence: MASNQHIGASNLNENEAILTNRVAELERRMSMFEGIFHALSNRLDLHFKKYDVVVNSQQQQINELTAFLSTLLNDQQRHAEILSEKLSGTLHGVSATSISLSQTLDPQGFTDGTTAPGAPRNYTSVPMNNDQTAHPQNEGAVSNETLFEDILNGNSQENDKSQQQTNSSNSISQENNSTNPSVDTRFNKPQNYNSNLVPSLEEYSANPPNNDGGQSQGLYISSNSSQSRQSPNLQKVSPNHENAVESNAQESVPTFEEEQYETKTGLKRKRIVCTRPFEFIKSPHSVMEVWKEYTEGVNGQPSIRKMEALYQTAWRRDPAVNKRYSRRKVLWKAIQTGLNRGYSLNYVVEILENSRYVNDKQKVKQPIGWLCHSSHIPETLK
Method in brief: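 Each ungapped eight-base word and its reverse complement, pooled, received an E-score from the Universal PBM Analysis Suite. Underlying scans, normalised with masliner, recorded fluorescent anti-GST bound to GST-tagged yeast transcription factors. These were applied at about 100-200 nM to universal all-10-mer Agilent arrays double-stranded by primer extension.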

First: ATCTCTCA
Second: CGTTCGCA
The “PBM E-score” value of the first is higher: 0.0118 for the first, -0.115 for the second.

First: CCGGGTAG
Second: CGTAACGA
The “PBM E-score” value of the first is lower: -0.133 for the first, -0.0332 for the second.

First: ACTGCGGC
Second: CGCACCCC
The “PBM E-score” value of the first is higher: -0.135 for the first, -0.4 for the second.

Going from TTAGCCAA to TAACAGAA, the “PBM E-score” value rises from -0.0717 to 0.131.

Compared with AGTGAGAG, CAGAGACG is higher in “PBM E-score” value: -0.225 for the first, 0.0409 for the second.

Compared with GCCCAGCA, ACCGCGGA is higher in “PBM E-score” value: -0.325 for the first, 0.0405 for the second.

Compared with ACTACCAA, AGATAACC is higher in “PBM E-score” value: -0.123 for the first, -0.041 for the second.

First: AGCTTTAC
Second: AGGAAGAA
The “PBM E-score” value of the first is higher: -0.141 for the first, -0.27 for the second.

Going from CGTTGACA to GAAAGAAC, the “PBM E-score” value falls from 0.17 to 0.00604.

First: ACGGGGAC
Second: CGGGTAGC
The “PBM E-score” value of the first is higher: 0.007 for the first, -0.206 for the second.

Going from ATATAGCC to GCCAGAAC, the “PBM E-score” value falls from 0.0497 to -0.0373.

First: CTTGGCAC
Second: ACGTTTGA
The “PBM E-score” value of the first is lower: 0.0174 for the first, 0.105 for the second.

First: CTTGGCCA
Second: GCGACTAA
The “PBM E-score” value of the first is lower: -0.0402 for the first, 0.048 for the second.

First: CGGTTGTC
Second: GCCTGTAA
The “PBM E-score” value of the first is higher: 0.136 for the first, -0.193 for the second.

Compared with ATATCTAC, ATCTTCCA is lower in “PBM E-score” value: 0.0547 for the first, -0.148 for the second.

Compared with AGTTATAG, ATTACCTA is lower in “PBM E-score” value: 0.1 for the first, 0.0259 for the second.

First: AGCTCGAC
Second: CCCAGGCC
The “PBM E-score” value of the first is higher: -0.0285 for the first, -0.194 for the second.

Going from AAAGTGGC to GATGGGTA, the “PBM E-score” value rises from -0.203 to -0.0575.

First: AGTGTCCC
Second: ATCAGGTC
The “PBM E-score” value of the first is higher: 0.375 for the first, 0.0328 for the second.

First: GCTCATAA
Second: AATAATCG
The “PBM E-score” value of the first is lower: -0.103 for the first, 0.035 for the second.

First: GGGCCATA
Second: CTTCGCAA
The “PBM E-score” value of the first is lower: 0.024 for the first, 0.0342 for the second.

Compared with TATAGCGA, ACGGATAC is higher in “PBM E-score” value: -0.138 for the first, 0.101 for the second.

First: CACCAGCC
Second: CTTTGACA
The “PBM E-score” value of the first is lower: -0.268 for the first, 0.132 for the second.

Compared with ACCGGTAG, AAACATGA is higher in “PBM E-score” value: -0.227 for the first, 0.197 for the second.

Going from TCTCTTAA to GGCCTGGA, the “PBM E-score” value falls from 0.0588 to -0.179.

Compared with CACAAGTC, CCGTCCCA is lower in “PBM E-score” value: 0.0697 for the first, -0.191 for the second.

Going from ATGCTCGA to ATGATAAT, the “PBM E-score” value rises from 0.00559 to 0.0338.

Compared with GACTAAAC, CAAGCGTG is higher in “PBM E-score” value: -0.144 for the first, 0.0238 for the second.

First: TCTATACA
Second: GGTGGCCA
The “PBM E-score” value of the first is higher: -0.0294 for the first, -0.242 for the second.

Compared with GAAAGATA, CGTACTAA is higher in “PBM E-score” value: -0.00073 for the first, 0.093 for the second.

Compared with AGTGGGCG, AATCCGAC is higher in “PBM E-score” value: -0.0515 for the first, 0.174 for the second.

Compared with ACCCCCCA, CGACTGAA is higher in “PBM E-score” value: -0.31 for the first, 0.038 for the second.

Going from CTGTACTC to ACAATGGA, the “PBM E-score” value rises from -0.0785 to 0.243.

First: ACGCTTCC
Second: CGCTCCGA
The “PBM E-score” value of the first is lower: -0.194 for the first, 0.119 for the second.

Compared with CGATTAGA, GGTACCTA is lower in “PBM E-score” value: -0.0577 for the first, -0.0691 for the second.

First: ATCTTAGG
Second: AACCTCGT
The “PBM E-score” value of the first is lower: -0.147 for the first, -0.0168 for the second.

Going from AGACTAGG to GTGGTGGA, the “PBM E-score” value falls from -0.0685 to -0.0952.

First: CCCACAGA
Second: CGGATAGA
The “PBM E-score” value of the first is lower: -0.021 for the first, 0.18 for the second.

First: ATCAGATA
Second: TGCTCTAA
The “PBM E-score” value of the first is higher: 0.00322 for the first, -0.00439 for the second.

Going from GATATATA to CGCTATGC, the “PBM E-score” value falls from 0.235 to -0.215.

Going from AGGCGCAG to AGGGAAAT, the “PBM E-score” value rises from -0.134 to -0.0436.

Compared with CGGCAACC, CAGTCTAC is lower in “PBM E-score” value: -0.111 for the first, -0.223 for the second.

Compared with ACTACTTC, TAACATAA is higher in “PBM E-score” value: 0.00092 for the first, 0.214 for the second.

Going from GACCGCTA to GAATGCTA, the “PBM E-score” value falls from -0.107 to -0.112.

Compared with CCTTCATC, GGTATAAA is higher in “PBM E-score” value: -0.249 for the first, 0.183 for the second.

Compared with ACACCACC, GGCTTCTA is higher in “PBM E-score” value: -0.0854 for the first, -0.0417 for the second.

Compared with ATTCTGTG, GCCATTCC is lower in “PBM E-score” value: 0.117 for the first, -0.174 for the second.

Going from GGACTCGA to TACCACGA, the “PBM E-score” value rises from -0.105 to 0.0799.

First: CGAAGCTC
Second: ATTGCGCA
The “PBM E-score” value of the first is lower: -0.107 for the first, -0.0114 for the second.

Compared with ATTGGTTC, ATACGGTC is lower in “PBM E-score” value: 0.0715 for the first, 0.0431 for the second.

Going from AAGCGAGG to AGACAGAG, the “PBM E-score” value rises from -0.178 to -0.00872.

Compared with ATGCAGCC, CGGAATGA is lower in “PBM E-score” value: 0.0973 for the first, 0.0592 for the second.

Going from CGACACAC to CAAAACCG, the “PBM E-score” value falls from 0.0525 to 0.0278.

First: GATCGAGA
Second: AGTGTGGC
The “PBM E-score” value of the first is higher: -0.0215 for the first, -0.0887 for the second.

Going from ATGTGGCC to CATTCCAG, the “PBM E-score” value rises from -0.0259 to -0.0187.

Going from GGAACCCA to CGCATGGA, the “PBM E-score” value falls from -0.0761 to -0.0802.

Going from CATTATGG to CCTTCGCG, the “PBM E-score” value rises from -0.157 to 0.0386.

Going from ATCTTGTC to CTCTCTGA, the “PBM E-score” value falls from 0.246 to -0.172.

First: CTAACCGA
Second: CATTGTTA
The “PBM E-score” value of the first is lower: -0.149 for the first, 0.11 for the second.

Going from CTGGGCGC to AGGATTGA, the “PBM E-score” value rises from -0.202 to 0.112.

Going from AGAACCAA to ACCCAATC, the “PBM E-score” value rises from -0.13 to -0.0136.

Going from GACTGGCA to CAATTGGG, the “PBM E-score” value rises from -0.235 to -0.0445.

First: AGCAATCG
Second: AACGCCAA
The “PBM E-score” value of the first is higher: 0.0419 for the first, -0.0218 for the second.

Going from GAGTGATA to ATGGCCGG, the “PBM E-score” value falls from 0.105 to -0.0642.

Compared with CCCGCTCA, AGAAGGAG is lower in “PBM E-score” value: -0.172 for the first, -0.387 for the second.

First: ATCTTACA
Second: CTCATCCA
The “PBM E-score” value of the first is higher: 0.128 for the first, -0.125 for the second.

Compared with TTGGGAAA, CCCGGTAG is lower in “PBM E-score” value: 0.0587 for the first, -0.114 for the second.

Compared with GACGAGAA, GGCGCACA is lower in “PBM E-score” value: 0.103 for the first, 0.0215 for the second.

First: AGAAAAGC
Second: CGTAAAGC
The “PBM E-score” value of the first is higher: -0.0232 for the first, -0.187 for the second.

Compared with TAATATCA, AGGACACT is higher in “PBM E-score” value: 0.108 for the first, 0.358 for the second.

Compared with ACCGAGCC, CCAATCGG is lower in “PBM E-score” value: 0.0368 for the first, 0.00055 for the second.

First: TACTAGGA
Second: CTTTCGTC
The “PBM E-score” value of the first is higher: 0.198 for the first, 0.053 for the second.

Going from AAATCTTA to ACTATTCG, the “PBM E-score” value falls from 0.0811 to 0.0722.

Compared with CTGACATA, CGGCACTA is lower in “PBM E-score” value: 0.269 for the first, -0.024 for the second.

Compared with CCGCATAA, CCAAGAAG is lower in “PBM E-score” value: 0.0515 for the first, -0.0807 for the second.

ACGTAGAC and GCCGACGA are the same in “PBM E-score” value: 0.022 for the first, 0.022 for the second.

Going from CGATTCGC to AGATGCGC, the “PBM E-score” value rises from -0.00543 to 0.058.

Going from ACAGTAGC to GATTGCAA, the “PBM E-score” value falls from 0.0239 to 0.0184.

Going from CGAACTAC to ACTATAAC, the “PBM E-score” value falls from 0.0623 to 0.0074.

First: AGAGGTCC
Second: CTGAGAGC
The “PBM E-score” value of the first is higher: -0.00313 for the first, -0.0928 for the second.

First: GGAACACA
Second: ACCCCCGG
The “PBM E-score” value of the first is higher: -0.0311 for the first, -0.318 for the second.

First: AAGAGCGC
Second: CGTTAAAA
The “PBM E-score” value of the first is higher: 0.172 for the first, -0.0648 for the second.

Compared with CGGGTAAG, ACTATCCC is lower in “PBM E-score” value: -0.135 for the first, -0.276 for the second.

Going from CATGGAGC to GCCGTATA, the “PBM E-score” value rises from -0.204 to 0.215.

Going from GCACCTCC to CTTGGAGC, the “PBM E-score” value rises from -0.278 to -0.118.

First: CGGCCGTC
Second: CATCCGAA
The “PBM E-score” value of the first is lower: -0.0413 for the first, 0.176 for the second.
